According to PubChem BioAssay AID1345082 (National Center for Advancing Translational Sciences (NCATS), 2018):
The whole screen tested about 94,000 compounds, of which about 4,000 (4.3%) were called active. Inconclusive means that the source gave no clear call. Such entries were picked first, then a sample of the others. The call rests on the fitted dose curve; in most records, active means well fitted inhibition curve with a large enough effect; inconclusive means small, poorly fitted or top-dose-only effect; inactive means no such curve, though single readings can be large or run the other way. Potencies beside an inconclusive call are fits to weak or partial responses and may not hold up.

test: Cytotoxic Profiling in NIH 3T3 Cell Line of Diverse Libraries Using Quantitative High-Throughput Screening; conditions: NIH 3T3 viability, CellTiter-Glo ATP luminescence, 48-72 h; activity change, negative = cytotoxicity: at 96.7 µM (top of the series) unless noted; series mostly up to 96.7 µM; further: nearly all actives have a fitted effect of over 55% in size
Method in brief: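 Cytotoxicity is measured as loss of cellular ATP: NIH 3T3 cells (400/well) are exposed to compound for 48 or 72 hr at 37 °C, then CellTiter-Glo luminescence is imaged after 10 min at room temperature.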
On the % scale 0 is the no-effect control and ±100 the full control effect; potency means the concentration at half of the fitted maximal effect; tags describe the fitted curve by direction and shape.

| SMILES | Potency | outcome | activity change, negative = cytotoxicity |
| --- | --- | --- | --- |
| O=C(Cc1cccc(Cl)c1)NC1CCN(c2cc(-c3ccccc3)[nH]n2)CC1 | active: 31.6 µM | – | – |
| O=C(c1ccc(F)cc1)N1CCc2nc(-c3ccccc3)nc(-c3ccc(Cl)cc3)c2C1 | inconclusive: 50.1 µM [inhibitor, partial curve, poor fit] | – | – |
| COc1ccc(C(=O)N2CCCC2c2nc(CCOCC3CC3)no2)cc1 (centres undefined) | – | inactive | – |
| CCOc1ccc(CC(=O)N2CCC[C@H]2c2nc(-c3ccccc3Cl)no2)cc1OCC | inconclusive: 44.7 µM [inhibitor, partial curve, poor fit] | – | – |
| CN(Cc1cccc(O)c1)C(=O)c1cc(COc2ccccc2F)[nH]n1 | – | – | inactive: -20.9% |
| COc1ccc(CN2C(=O)CO[C@H](c3ccc(NC(=O)COc4ccccc4)cc3)[C@H]2CO)cc1 | inconclusive: 50.1 µM [inhibitor, partial curve, poor fit] | – | – |
| Cn1ccnc1CN1CCN(Cc2cc3n(n2)CCNC3)CC1 | – | – | inactive: 2.19% |
| CCN(CC)c1ccc(C(=O)N2CCCC(n3cc(-c4noc(C)n4)nn3)C2)cc1 (centres undefined) | – | – | inactive: -28.3% |
| Cc1c(F)cccc1NC(=O)C1CN(S(=O)(=O)C2CC2)CC12CCCCC2 (centres undefined) | inconclusive: 50.1 µM [inhibitor, partial curve, poor fit] | – | – |
| O=C1CCN(S(=O)(=O)c2ccccc2)CCCN(C(=O)Nc2ccc3c(c2)OCCO3)CCN1 | – | – | inactive: -6.38% |
| O=C(O)c1cccc(C2CCCN(C(=O)Cc3cc(F)c(F)c(F)c3)C2)c1 (centres undefined) | inconclusive: 89.1 µM [inhibitor, partial curve, poor fit] | – | – |
| CC(C)c1noc(-c2cn(C3CCN(C(=O)c4ccco4)C3)nn2)n1 (centres undefined) | inconclusive: 50.1 µM [inhibitor, partial curve, poor fit] | – | – |
| C=CCNC(=O)OC1CN(CC=C)C(=O)CN([S+](=O)([O-])c2cccs2)C1 (centres undefined) | inconclusive: 50.1 µM [inhibitor, partial curve, poor fit] | – | – |
| Cc1ccc(-c2cccc(CN3CCCC3C(=O)NCc3ccc(F)cc3)c2)cc1Cl (centres undefined) | inconclusive: 44.7 µM [inhibitor, partial curve, poor fit] | – | – |
| CN1CCN(C(=O)c2cc(-c3cc(Cl)cc(Cl)c3)nc3c2cnn3C)CC1 | inconclusive: 44.7 µM [inhibitor, partial curve, poor fit] | – | – |
| Cc1oc2ccn(Cc3ccccc3F)c(=O)c2c1C(=O)NC(C)c1ccccc1 (centres undefined) | inconclusive: 50.1 µM [inhibitor, partial curve, poor fit] | – | – |
| CCC1=C(C(=O)OC)C(c2ccccc2OC)N2C(CC(=O)NCC3CCCO3)=CSC2=N1 (centres undefined) | – | – | inactive: -4.41% |
| O=C(NC1CCN(c2cc(-c3ccc(F)cc3)[nH]n2)C1)c1cc2ccccc2[nH]1 (centres undefined) | active: 39.8 µM | – | – |
| Cc1ccc(-c2cc(C(=O)N3CCC(Cc4nncn4C(C)C)CC3)c3ccccc3n2)cc1C | inconclusive: 7.08 µM [inhibitor, full curve, poor fit] | – | – |
| COc1ccc2c(c1)C(COCc1ccc(C(=O)O)cc1)CC(C)(C)O2 (centres undefined) | inconclusive: 44.7 µM [inhibitor, partial curve, poor fit] | – | – |

| SMILES | Potency | outcome | activity change, negative = cytotoxicity |
| --- | --- | --- | --- |
| O=C1CCCCN1CCNc1ccc(-c2nc(-c3ccccc3F)no2)cn1 | inconclusive: 25.1 µM [inhibitor, partial curve, poor fit] | – | – |
| CS(=O)(=O)N1CCCC(OCc2noc(-c3cccnc3)n2)C1 (centres undefined) | – | – | inactive: -8.11% |
| Cn1ncc2c(C(=O)NCc3ccccc3Cl)cc(-c3ccccc3F)nc21 | inconclusive: 25.1 µM [inhibitor, full curve] | – | – |
| CN1CCCN(S(=O)(=O)c2ccc3c(c2)CCC3)c2ccccc21 | inconclusive: 44.7 µM [inhibitor, partial curve, poor fit] | – | – |
| COc1ccc(NC(=O)O[C@@H]2CO[C@H]3[C@@H]2OC[C@@H]3NS(=O)(=O)c2ccc(Cl)cc2)cc1 | inconclusive: 79.4 µM [inhibitor, partial curve, poor fit] | – | – |
| CC(C)NC(=O)N1CCC[C@@H](O)[C@H](NC(=O)c2ccc(OCc3ccccc3)cc2)C1 | inconclusive: 112 µM [inhibitor, partial curve, poor fit] | – | – |
| CNC(=O)[C@@H]1CN(C(=O)CCc2cc(OC)no2)C[C@H]1c1nc(C)no1 | – | inactive | – |
| O=C(NCc1cccc(Cl)c1)c1cn2cc(-c3ccccc3)sc2n1 | inconclusive: 50.1 µM [inhibitor, partial curve, poor fit] | – | – |
| COc1ccccc1-c1ccc2ncn(Cc3ccccc3)c(=O)c2n1 | active: 7.94 µM | – | – |
| O=[S+]1([O-])c2cnccc2O[C@@H](COCc2ccccc2)CN1Cc1cccc(F)c1 | inconclusive: 11.2 µM [inhibitor, full curve] | – | – |
| CC(=O)Nc1cccc(-c2n[nH]c3c2CC(=O)N(CC2CC2)C3)c1 | inconclusive: 20 µM [inhibitor, full curve, poor fit] | – | – |
| CCOc1ccc(C(=O)N2CCN(c3cc(-c4ccc(OC)cc4)[nH]n3)CC2)cc1 | inconclusive: 44.7 µM [inhibitor, partial curve, poor fit] | – | – |
| COc1ccc(Cl)cc1-c1ccc2c(c1)C(=O)N1CCN(C(=O)C3CCCCC3)C[C@@H]1C(=O)N2 | active: 44.7 µM | – | – |
| Cc1c(-c2ccccc2)[nH]c2c(CNC(=O)c3ccc(=O)n(C)n3)cc(Cl)cc12 | inconclusive: 20 µM [inhibitor, partial curve, poor fit] | – | – |
| O[C@H]1CC[C@@H](Cc2cc(COc3ccccc3)on2)O[C@@H]1CNCc1cccc(Cl)c1 | inconclusive: 50.1 µM [inhibitor, partial curve, poor fit] | – | – |
| COc1ccc(CC(=O)NC2CCCN(c3cc(-c4ccc(Cl)cc4)[nH]n3)C2)cc1OC (centres undefined) | inconclusive: 35.5 µM [inhibitor, partial curve, poor fit] | – | – |
| Cc1cc(C)cc(-c2ccc(CN3CCCC3C(=O)N3CCCC3)cc2)c1 (centres undefined) | inconclusive: 50.1 µM [inhibitor, partial curve, poor fit] | – | – |
| COCCN1C(=O)c2cccn2CC1CNC(=O)NCc1ccc(OC)cc1 (centres undefined) | inconclusive: 79.4 µM [inhibitor, single point] | – | – |
| CN(c1ccccc1)c1cc(=O)c2ccnc(NCCc3ccccn3)c2o1 | active: 25.1 µM | – | – |
| N#Cc1cccnc1-c1ccc(C(=O)N2CCC(N[S+](=O)([O-])c3cccs3)CC2)cc1 | inconclusive: 50.1 µM [inhibitor, partial curve, poor fit] | – | – |

| SMILES | Potency | outcome | activity change, negative = cytotoxicity |
| --- | --- | --- | --- |
| CS(=O)(=O)N1CCCN(Cc2ccc(F)cc2F)CCNC(=O)CC1c1ccccc1 (centres undefined) | – | – | inactive: -18.6% |
| O=C(Cn1ccn2nc(-c3ccccc3)c(CO)c2c1=O)Nc1ccc(Cl)cc1 | inconclusive: 31.6 µM [inhibitor, full curve] | – | – |
| Fc1ccccc1CN1CCNc2cc(Nc3cccnc3)ncc2C1 | inconclusive: 12.6 µM [inhibitor, full curve, poor fit] | – | – |
| C=CCC1(C(=O)O)CCCN(C(=O)Cc2c[nH]c(=O)n(C)c2=O)C1 (centres undefined) | – | inactive | – |
| Cc1sc2ccn(Cc3ccc(F)cc3)c(=O)c2c1C(=O)NCc1cccs1 | inconclusive: 70.8 µM [inhibitor, single point] | – | – |
| CCc1nc2c(c(-c3ccc(O)cc3)n1)CN(Cc1ccccc1)CC2 | inconclusive: 79.4 µM [inhibitor, partial curve, poor fit] | – | – |
| CC(C)C(=O)N1CCc2ccc(OCc3nc(C(=O)N4CCCC4)co3)cc2C1c1cccc(F)c1 (centres undefined) | inconclusive: 44.7 µM [inhibitor, partial curve, poor fit] | – | – |
| Cc1cccc(-n2nc(-c3c(C)nc4scc(CC(=O)NCCc5ccccc5)n4c3=O)cc2C)c1 | inconclusive: 50.1 µM [inhibitor, partial curve, poor fit] | – | – |
| O=C(NCc1ccccc1Cl)C1CCCCN1Cc1ccc(-c2ccsc2)cc1 (centres undefined) | active: 28.2 µM | – | – |
| CC(=O)N1CCc2nn(CC(=O)Nc3cccc(Br)c3)c(=O)cc2C1 | inconclusive: 70.8 µM [inhibitor, single point] | – | – |
| CC(=O)NC1(C)CCN(Cc2ccc(-c3ccc(N4CCOCC4)cc3)cc2)C1 (centres undefined) | inconclusive: 79.4 µM [inhibitor, partial curve] | – | – |
| CCNC(=O)N(C1CC1)C1CCOC2(CCN(C(=O)CCCc3ccccc3)CC2)C1 (centres undefined) | inconclusive: 31.6 µM [inhibitor, partial curve, poor fit] | – | – |
| COCc1nc2nc(-c3ccccc3)c(-c3cccc(NC(C)=O)c3)cc2n1C | inconclusive: 50.1 µM [inhibitor, partial curve] | – | – |
| CCc1ncc2c(N3CC4CCC(C3)N4CC(F)(F)F)nc3ccccc3n12 | inconclusive: 35.5 µM [inhibitor, partial curve, poor fit] | – | – |
| CS(=O)(=O)N1CCC2(CC1)CN(C(=O)c1ccc(Cl)cc1)CCO2 | inconclusive: 70.8 µM [inhibitor, partial curve, poor fit] | – | – |
| COc1ccc(-n2nc3n(c2=O)CCN([S+](=O)([O-])c2ccccc2)C3)cc1 | – | – | inactive: -12.6% |
| COCCCNC(=O)c1ccc2nnc(-c3cc(C(F)(F)F)cc(C(F)(F)F)c3)n2c1 | inconclusive: 50.1 µM [inhibitor, partial curve, poor fit] | – | – |
| COc1cccc(CC(=O)NC2CCN(c3cc(-c4ccc(F)cc4)[nH]n3)C2)c1 (centres undefined) | inconclusive: 28.2 µM [inhibitor, full curve] | – | – |
| COc1ccc2[nH]c(CN3CCC(CCC(=O)NCc4ccc(F)cc4)CC3)c(C)c2c1 | inconclusive: 56.2 µM [inhibitor, partial curve, poor fit] | – | – |
